Here are results for 1 molecule from patent US20240156979A1 (PALLEON PHARMACEUTICALS, published 2024).

The assay has as its target T1, Siglec-specific antibody for Siglec-9 (R&D Systems MAB1139).
T1 construct: Bought reagent, known only by its catalog number; also called anti-Siglec-9 antibody; Sig-9 specific antibody
Description: ForteBio Octet; construct captured on AHC biosensor, antibody titrated; 1:1 fit. Here is the method:
Binding of purified Siglec ECD constructs to anti-Siglec antibodies was measured by ForteBio Octet.
Briefly, Siglec ECD constructs were captured on an AHC (Anti-human IgG-Capture) Biosensor. Siglec-specific antibodies for Siglec-6 (R&D Systems; MA2859), Siglec-9 (R&D Systems MAB1139), Siglec-10 (Thermo Fisher Scientific; MA5-28237), Siglec-11 (R&D Systems; MAB3258), and Siglec-15 (a monoclonal antibody derived from a 5G12 variant having a hVH1 heavy chain and hVL3 light chain as described in WO2018/057735) were titrated from 100 nM in a 2× series dilution. The signal was subtracted with buffer reference and aligned to the baseline. KD, Kon and Koff values were generated using a 1:1 fitting model. The binding kinetics for the following Siglec ECD constructs were determined: Sig-6-Fc-1G, Sig-6-SAX-Fc-1G, Sig-9-Fc, Sig-9-Fc-1G, Sig-9-SAX-Fc-1G, Sig-11-Fc-1G, Sig-11-SAX-Fc-1G, Sig-15-Fc-1G, and Sig-15-SAX-Fc-1G. All the ForteBio Octet assays used standard/conventional settings.
For orientation: In BLI a coated tip is dipped into the sample, and binding shifts an interference pattern.

B1: Sig-9-Fc-1G (Fc fusion)
chain: QTSKLLTMQSSVTVQEGLCVHVPCSFSYPSHGWIYPGPVVHGYWFREGANTDQDAPVATNNPARAVWEETRDRFHLLGDPHTKNCTLSIRDARRSDAGRYFFRMEKGSIKWNYKHHRLSVNVTALTHRPNILIPGTLESGSPQNLTCSVPWACEQGTPPMISWIGTSVSPLDPSTTRSSVLTLIPQPQDHGTSLTCQVTFPGASVTTNKTVHLNVSYPPQNLTMTVFQGDGTVSTVLGNGSSLSLPEGQSLRLVCAVDAVDSNPPARLSLSWRGLTLYPSQPSNPGVLELPWVHLRDAAEFTCRAQNPLGSQQVYLNVSLQSKATSGVTQGAS[human IgG1 Fc with changes not given here]
notes: also called Sig-9-1G-Fc; Sig-9-1G
Broadly, the Kd is the equilibrium constant for the complex coming apart. As for B1, the Kd is less than 10 nM.
